Results are given in words; binding and its absence hold for the method and conditions named. For some assays here: In cells and extracts the contact can be indirect. Some results given as binding are weak or reduced against the parent protein; the word gives no strength. For some assays here: Tags and fused reporters may be left off the sequences shown.
Legend:
GST-Rab2A(Q65L) (human) = GST-Rab2A(Q65L) (human) (UniProt P61019); test: pull-down; GST-Rab on glutathione Sepharose beads with GppNHp or GDP (100 uM), lysate of HEK293T cells (HeLa in the legend of Figure 7E), untransfected or expressing FLAG-HPS3; 1% Triton X-100, high salt elution, immunoblot; only the target purified
[1] = target: Rab2A(Q65L)-BirA*-HA-MAO (human) (UniProt P61019); test: relocation to mitochondria (confocal microscopy); tagged protein co-expressed in cells (MEFs, HeLa) with the mitochondrial GTPase-BirA* chimera; relocation of the tagged protein to mitochondria
GST-Rab5A(Q79L) (human) = GST-Rab5A(Q79L) (human) (UniProt P20339); test: pull-down; GST-Rab on glutathione Sepharose beads with GppNHp or GDP (100 uM), lysate of HEK293T cells (HeLa in the legend of Figure 7E), untransfected or expressing FLAG-HPS3; 1% Triton X-100, high salt elution, immunoblot; only the target purified
GST-Rab9A(Q66L) (human) [2] = target: T1, GST-Rab9A(Q66L) (human) (UniProt P51151); test: pull-down; GST-Rab9A beads, pre-cleared lysate of E. coli expressing His6-NDE1, 2 hr 4 C, Coomassie gel and anti-His6 immunoblot; only the target purified
T1 sequence: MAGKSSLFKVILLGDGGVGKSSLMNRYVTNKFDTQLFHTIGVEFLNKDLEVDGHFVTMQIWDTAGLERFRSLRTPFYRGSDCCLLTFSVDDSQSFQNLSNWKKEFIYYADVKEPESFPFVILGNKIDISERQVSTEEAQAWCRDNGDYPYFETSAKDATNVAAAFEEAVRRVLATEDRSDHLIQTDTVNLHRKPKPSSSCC

Sequences of proteins named here, by UniProt entry; tags and fusion partners are left off. A change or cut given only in a name is not applied to a line headed by its entry.
UniProt P61019: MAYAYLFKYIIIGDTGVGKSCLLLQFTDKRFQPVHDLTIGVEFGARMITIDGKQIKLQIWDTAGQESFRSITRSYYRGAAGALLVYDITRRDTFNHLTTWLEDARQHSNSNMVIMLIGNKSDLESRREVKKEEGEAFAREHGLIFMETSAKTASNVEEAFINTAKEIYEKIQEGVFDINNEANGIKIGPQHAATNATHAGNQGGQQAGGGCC
UniProt P20339: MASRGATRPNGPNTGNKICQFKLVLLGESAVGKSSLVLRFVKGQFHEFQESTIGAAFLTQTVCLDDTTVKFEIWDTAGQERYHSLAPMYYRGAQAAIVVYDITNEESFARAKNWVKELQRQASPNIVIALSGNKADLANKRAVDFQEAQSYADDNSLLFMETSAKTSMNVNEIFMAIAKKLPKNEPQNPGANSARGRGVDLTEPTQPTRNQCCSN

GST-Rab9A(Q66L) (human) [3] = target: T1, GST-Rab9A(Q66L) (human); test: pull-down; GST-Rab on glutathione Sepharose beads with GppNHp or GDP (100 uM), lysate of HEK293T cells (HeLa in the legend of Figure 7E), untransfected or expressing FLAG-HPS3; 1% Triton X-100, high salt elution, immunoblot; only the target purified
[4] = target: T2, Rab9A(Q66L)-BirA*-HA-MAO (human) (UniProt P51151); test: relocation to mitochondria (confocal microscopy); tagged protein co-expressed in cells (MEFs, HeLa) with the mitochondrial GTPase-BirA* chimera; relocation of the tagged protein to mitochondria
T2 sequence: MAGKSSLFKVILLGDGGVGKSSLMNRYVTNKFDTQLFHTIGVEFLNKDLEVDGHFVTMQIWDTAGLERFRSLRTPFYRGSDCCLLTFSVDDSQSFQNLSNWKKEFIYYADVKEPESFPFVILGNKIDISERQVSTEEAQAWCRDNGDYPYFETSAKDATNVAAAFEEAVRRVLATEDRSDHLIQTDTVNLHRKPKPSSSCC

[5] = target: T3, Rab9A(S21N)-BirA*-HA-MAO (human) (UniProt P51151); test: as above
T3 sequence: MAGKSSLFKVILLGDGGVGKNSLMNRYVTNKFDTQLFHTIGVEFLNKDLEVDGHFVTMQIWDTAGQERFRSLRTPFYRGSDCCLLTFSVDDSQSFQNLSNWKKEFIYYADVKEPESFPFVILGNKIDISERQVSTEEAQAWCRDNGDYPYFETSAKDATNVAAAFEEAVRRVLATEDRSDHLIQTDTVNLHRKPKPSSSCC

B1: STAMBPL1 (protein, UniProt Q96FJ0 1-436)
chain: MDQPFTVNSLKKLAAMPDHTDVSLSPEERVRALSKLGCNITISEDITPRRYFRSGVEMERMASVYLEEGNLENAFVLYNKFITLFVEKLPNHRDYQQCAVPEKQDIMKKLKEIAFPRTDELKNDLLKKYNVEYQEYLQSKNKYKAEILKKLEHQRLIEAERKRIAQMRQQQLESEQFLFFEDQLKKQELARGQMRSQQTSGLSEQIDGSALSCFSTHQNNSLLNVFADQPNKSDATNYASHSPPVNRALTPAATLSAVQNLVVEGLRCVVLPEDLCHKFLQLAESNTVRGIETCGILCGKLTHNEFTITHVIVPKQSAGPDYCDMENVEELFNVQDQHDLLTLGWIHTHPTQTAFLSSVDLHTHCSYQLMLPEAIAIVCSPKHKDTGIFRLTNAGMLEVSACKKKGFHPHTKEPRLFSICKHVLVKDIKIIVLDLR
binding (GST-Rab2A(Q65L) (human)): binds

B2: GFP-FLAG-STAMBPL1 (protein, UniProt Q96FJ0 1-436)
chain: MDQPFTVNSLKKLAAMPDHTDVSLSPEERVRALSKLGCNITISEDITPRRYFRSGVEMERMASVYLEEGNLENAFVLYNKFITLFVEKLPNHRDYQQCAVPEKQDIMKKLKEIAFPRTDELKNDLLKKYNVEYQEYLQSKNKYKAEILKKLEHQRLIEAERKRIAQMRQQQLESEQFLFFEDQLKKQELARGQMRSQQTSGLSEQIDGSALSCFSTHQNNSLLNVFADQPNKSDATNYASHSPPVNRALTPAATLSAVQNLVVEGLRCVVLPEDLCHKFLQLAESNTVRGIETCGILCGKLTHNEFTITHVIVPKQSAGPDYCDMENVEELFNVQDQHDLLTLGWIHTHPTQTAFLSSVDLHTHCSYQLMLPEAIAIVCSPKHKDTGIFRLTNAGMLEVSACKKKGFHPHTKEPRLFSICKHVLVKDIKIIVLDLR
binding [1]: binds

B3: OSBPL9 (protein, UniProt Q96SU4 1-736)
chain: MASIMEGPLSKWTNVMKGWQYRWFVLDYNAGLLSYYTSKDKMMRGSRRGCVRLRGAVIGIDDEDDSTFTITVDQKTFHFQARDADEREKWIHALEETILRHTLQLQGLDSGFVPSVQDFDKKLTEADAYLQILIEQLKLFDDKLQNCKEDEQRKKIETLKETTNSMVESIKHCIVLLQIAKDQSNAEKHADGMISTINPVDAIYQPSPLEPVISTMPSQTVLPPEPVQLCKSEQRPSSLPVGPVLATLGHHQTPTPNSTGSGHSPPSSSLTSPSHVNLSPNTVPEFSYSSSEDEFYDADEFHQSGSSPKRLIDSSGSASVLTHSSSGNSLKRPDTTESLNSSLSNGTSDADLFDSHDDRDDDAEAGSVEEHKSVIMHLLSQVRLGMDLTKVVLPTFILERRSLLEMYADFFAHPDLFVSISDQKDPKDRMVQVVKWYLSAFHAGRKGSVAKKPYNPILGEIFQCHWTLPNDTEENTELVSEGPVPWVSKNSVTFVAEQVSHHPPISAFYAECFNKKIQFNAHIWTKSKFLGMSIGVHNIGQGCVSCLDYDEHYILTFPNGYGRSILTVPWVELGGECNINCSKTGYSANIIFHTKPFYGGKKHRITAEIFSPNDKKSFCSIEGEWNGVMYAKYATGENTVFVDTKKLPIIKKKVRKLEDQNEYESRSLWKDVTFNLKIRDIDAATEAKHRLEERQRAEARERKEKEIQWETRLFHEDGECWVYDEPLLKRLGAAKH
binding (GST-Rab5A(Q79L) (human)): binds

B4: RELCH/KIAA1468 (protein, UniProt Q9P260 1-1216)
chain: MAAMAPGGSGSGGGVNPFLSDSDEDDDEVAATEERRAVLRLGAGSGLDPGSAGSLSPQDPVALGSSARPGLPGEASAAAVALGGTGETPARLSIDAIAAQLLRDQYLLTALELHTELLESGRELPRLRDYFSNPGNFERQSGTPPGMGAPGVPGAAGVGGAGGREPSTASGGGQLNRAGSISTLDSLDFARYSDDGNRETDEKVAVLEFELRKAKETIQALRANLTKAAEHEVPLQERKNYKSSPEIQEPIKPLEKRALNFLVNEFLLKNNYKLTSITFSDENDDQDFELWDDVGLNIPKPPDLLQLYRDFGNHQVTGKDLVDVASGVEEDELEALTPIISNLPPTLETPQPAENSMLVQKLEDKISLLNSEKWSLMEQIRRLKSEMDFLKNEHFAIPAVCDSVQPPLDQLPHKDSEDSGQHPDVNSSDKGKNTDIHLSISDEADSTIPKENSPNSFPRREREGMPPSSLSSKKTVHFDKPNRKLSPAFHQALLSFCRMSADSRLGYEVSRIADSEKSVMLMLGRCLPHIVPNVLLAKREELIPLILCTACLHPEPKERDQLLHILFNLIKRPDDEQRQMILTGCVAFARHVGPTRVEAELLPQCWEQINHKYPERRLLVAESCGALAPYLPKEIRSSLVLSMLQQMLMEDKADLVREAVIKSLGIIMGYIDDPDKYHQGFELLLSALGDPSERVVSATHQVFLPAYAAWTTELGNLQSHLILTLLNKIEKLLREGEHGLDEHKLHMYLSALQSLIPSLFALVLQNAPFSSKAKLHGEVPQIEVTRFPRPMSPLQDVSTIIGSREQLAVLLQLYDYQLEQEGTTGWESLLWVVNQLLPQLIEIVGKINVTSTACVHEFSRFFWRLCRTFGKIFTNTKVKPQFQEILRLSEENIDSSAGNGVLTKATVPIYATGVLTCYIQEEDRKLLVGFLEDVMTLLSLSHAPLDSLKASFVELGANPAYHELLLTVLWYGVVHTSALVRCTAARMFELTLRGMSEALVDKRVAPALVTLSSDPEFSVRIATIPAFGTIMETVIQRELLERVKMQLASFLEDPQYQDQHSLHTEIIKTFGRVGPNAEPRFRDEFVIPHLHKLALVNNLQIVDSKRLDIATHLFEAYSALSCCFISEDLMVNHFLPGLRCLRTDMEHLSPEHEVILSSMIKECEQKVENKTVQEPQGSMSIAASLVSEDTKTKFLNKMGQLTTSGAMLANVFQRKK
binding (GST-Rab5A(Q79L) (human)): binds

B5: His6-Nde1 (protein, UniProt Q9NXR1 1-335)
chain: MEDSGKTFSSEEEEANYWKDLAMTYKQRAENTQEELREFQEGSREYEAELETQLQQIETRNRDLLSENNRLRMELETIKEKFEVQHSEGYRQISALEDDLAQTKAIKDQLQKYIRELEQANDDLERAKRATIMSLEDFEQRLNQAIERNAFLESELDEKENLLESVQRLKDEARDLRQELAVQQKQEKPRTPMPSSVEAERTDTAVQATGSVPSTPIAHRGPSSSLNTPGSFRRGLDDSTGGTPLTPAARISALNIVGDLLRKVGALESKLASCRNLVYDQSPNRTGGPASGRSSKNRDGGERRPSSTSVPLGDKGLDTSCRWLSKSTTRSSSSC
binding (GST-Rab9A(Q66L) (human) [2]): binds

B6: FLAG-HPS3 (protein, UniProt Q969F9 1-1004)
chain: MVQLYNLHPFGSQQVVPCKLEPDRFCGGGRDALFVAAGCKVEAFAVAGQELCQPRCAFSTLGRVLRLAYSEAGDYLVAIEEKNKATFLRAYVNWRNKRTENSRVCIRMIGHNVEGPFSKAFRDQMYIIEMPLSEAPLCISCCPVKGDLLVGCTNKLVLFSLKYQIINEEFSLLDFERSLIIHIDNITPVEVSFCVGYVAVMSDLEVLIVKLESGPKNGERVHHHPHKTNNRIRRTEEGISNEISQLESDDFVICQKPLELLGEKSEQSGLSVTLESTGLADEKRKYSHFQHLLYRRFAPDISSYVLSDDIKLHSLQLLPIYQTGSLTSDGKNLSQEKELLSLFCFFSLPHVGYLYMVVKSVELMSVYQYPEKSQQAVLTPQFLHVITSNNLQCFTVRCSAAAAREEDPYMDTTLKACPPVSMDVCALRIQLFIGLKAICHFKNHIILLTKAEPEAIPERRQSPKRLLSRKDTSVKIKIPPVAEAGWNLYIVNTISPVQLYKEMVDYSNTYKTVKTQSCIHLLSEAHLLVRAALMDASQLEPGEKAELLEAFKESCGHLGDCYSRLDSQHSHLTLPYYKMSGLSMAEVLARTDWTVEDGLQKYERGLIFYINHSLYENLDEELNEELAAKVVQMFYVAEPKQVPHILCSPSMKNINPLTAMSYLRKLDTSGFSSILVTLTKAAVALKMGDLDMHRNEMKSHSEMKLVCGFILEPRLLIQQRKGQIVPTELALHLKETQPGLLVASVLGLQKNNKIGIEEADSFFKVLCAKDEDTIPQLLVDFWEAQLVACLPDVVLQELFFKLTSQYIWRLSKRQPPDTTPLRTSEDLINACSHYGLIYPWVHVVISSDSLADKNYTEDLSKLQSLICGPSFDIASIIPFLEPLSEDTIAGLSVHVLCRTRLKEYEQCIDILLERCPEAVIPYANHELKEENRTLWWKKLLPELCQRIKCGGEKYQLYLSSLKETLSIVAVELELKDFMNVLPEDGTATFFLPYLLYCSRKKPLT
binding (GST-Rab9A(Q66L) (human) [3]): binds | binding [4]: binds | binding [5]: no binding
